Reference: patent publication US20240382470A1, “Irak Inhibitor for Treating Cytokine Release-Related Conditions Associated With Infection by a Respiratory Virus” (Rigel Pharmaceuticals, Inc., priority 2021, published 2024)
Where a name gives a salt, the structure may show the parent alone.

Key:
[1] = chow pharmacokinetic (PK) study, plasma Compound VII-1 after Compound VII-49 chow; format: in vivo, Mice; conditions: Compound VII-49 0.6 g/kg diet relative to 0.12 g/kg or 0.3 g/kg diet
NZB/W F1 mice = assay: body weight in lupus-like disease model on supplemented diet; conditions: Compound VII-49 0.6 g/kg diet relative to vehicle and 0.12 g/kg diet
Description: FIG. 2. Compound VII-49 dose (0.5 g/kg chow), based on prior chow pharmacokinetic (PK) study. A) Mice were fed AIN-76A rodent chow supplemented with Compound VII-49 (0.5 g/kg chow) for 5 days. Compound VII-1 (active metabolite of Compound VII-49) (ng/mL) accumulation was measured from plasma harvest following chow supplementation with Compound VII-49. B) Measurement of Compound VII-1 concentration (Area under the curve=AUC and Cmax) in plasma harvested from Compound VII-49 0.12 g/kg, 0.3 g/kg, and 0.6 g/kg fed mice. C) Body weight over change over time in NZB/W F1 mice fed diets supplemented with vehicle, Compound VII-49 0.12 g/kg, or R509-Tris 0.6 g/kg. Compound VII-1 is the active metabolite of the prodrug compound Compound VII-49.
In order to determine the pharmacokinetics (PK) of Compound VII-49 conversion into Compound VII-1, Mice were fed AIN-76A rodent chow supplemented with Compound VII-49 (0.5 g/kg chow) for 5 days. […] Compound VII-1 concentration (Area under the curve=AUC and Cmax) was measured in different feeding regimes. […] In order to asses the effects of Compound VII-49 on a lupus-like disease model, NZB/W F1 mice were fed diets supplemented with vehicle, Compound VII-49 0.12 g/kg, or Compound VII-49 0.6 g/kg and their change in body weight was measured.

[2] = system: Shp1fl/fl RosaERT2-Cre/+ mouse model of lung inflammation; conditions: Compound VII-49 0.5 g/kg of chow for approximately 13 days, 21 day study
Description: FIG. 1. Tamoxifen-induced Shp1 deletion in hematopoietic cells results in ARDS-like disease in mice. ARDS-like disease model is produced by crossing Shp1^fl/fl to Shp1^fl/flRosa^ERT2-CRE/+ mice. Rosa^ERT2-CRE/+ is expressed under a Tamoxifen inducible promoter. When Tamoxifen is administered to Shp1^fl/flRosa^ERT2-CRE/+ mice CRE recombinase is activated resulting in deletion of Shp1 in hematopoietic cells.
FIG. 3. Evaluation of Compound VII-49 administered in chow in the Shp1fl/fl Rosa^ERT2-Cre/+ mouse model of lung inflammation study design. Tamoxifen is administered at day 1 for a total of 4 days wherein Tamoxifen is administered twice a day at 200 mg/kg/bid (400 mg/kg/day). Following 7%/days of control chow, mice are fed chow supplemented with Compound VII-49 0.5 g/kg of chow for a period of approximately 13 days. Mice were euthanized on day 21.
Tamoxifen-induced Shp1 deletion in hematopoietic cells results in ARDS-like disease in mice. In an effort to generate an ARDS-like disease model, Shp1^fl/fl Rosa^ERT2-CRE/+ obtained from Jackson Laboratories were crossed to Shp1^fl/fl mice. Rosa^ERT2-CRE/+ is under the control of a Tamoxifen inducible promoter. Shp1^fl/fl Rosa^ERT2-CRE/+ mice were administered Tamoxifen to activate CRE recombinase resulting in deletion of Shp1 in all cells that normally express Shp1 (FIG. 1). […]

In the case of `CCO[C@H]1CC[C@H](n2cc(NC(=O)c3csc(-c4cnn(C(C)OP(=O)(O)O)c4)n3)c(-c3nc(F)ccc3F)n2)CC1` (stereo partly drawn) [VII-49, 1-(4-(4-((3-(3,6-difluoropyridin-2-yl)-1-((1r,4r)-4-ethoxycyclohexyl)-1H-pyrazol-4-yl)carbamoyl)thiazol-2-yl)-1H-pyrazol-1-yl)ethyl dihydrogen phosphate tris salt], the “R835 (Compound VII-1) concentration (AUC and Cmax) in plasma” value [1] was “highest”, the “change in body weight” value (NZB/W F1 mice) was “increase in body weight” and the “lung inflammation as seen in body weight change” value [2] was “rescues”.
